# Results: the supplement of paper PMC8728848
# The other results are listed elsewhere or left out.
# B1: Neuropilin-2 (Homo sapiens), O60462 (protein)
# chain: MDMFPLTWVFLALYFSRHQVRGQPDPPCGGRLNSKDAGYITSPGYPQDYPSHQNCEWIVYAPEPNQKIVLNFNPHFEIEKHDCKYDFIEIRDGDSESADLLGKHCGNIAPPTIISSGSMLYIKFTSDYARQGAGFSLRYEIFKTGSEDCSKNFTSPNGTIESPGFPEKYPHNLDCTFTILAKPKMEIILQFLIFDLEHDPLQVGEGDCKYDWLDIWDGIPHVGPLIGKYCGTKTPSELRSSTGILSLTFHTDMAVAKDGFSARYYLVHQEPLENFQCNVPLGMESGRIANEQISASSTYSDGRWTPQQSRLHGDDNGWTPNLDSNKEYLQVDLRFLTMLTAIATQGAISRETQNGYYVKSYKLEVSTNGEDWMVYRHGKNHKVFQANNDATEVVLNKLHAPLLTRFVRIRPQTWHSGIALRLELFGCRVTDAPCSNMLGMLSGLIADSQISASSTQEYLWSPSAARLVSSRSGWFPRIPQAQPGEEWLQVDLGTPKTVKGVIIQGARGGDSITAVEARAFVRKFKVSYSLNGKDWEYIQDPRTQQPKLFEGNMHYDTPDIRRFDPIPAQYVRVYPERWSPAGIGMRLEVLGCDWTDSKPTVETLGPTVKSEETTTPYPTEEEATECGENCSFEDDKDLQLPSGFNCNFDFLEEPCGWMYDHAKWLRTTWASSSSPNDRTFPDDRNFLRLQSDSQREGQYARLISPPVHLPRSPVCMEFQYQATGGRGVALQVVREASQESKLLWVIREDQGGEWKHGRIILPSYDMEYQIVFEGVIGKGRSGEIAIDDIRISTDVPLENCMEPISAFAGENFKVDIPEIHEREGYEDEIDDEYEVDWSNSSSATSGSGAPSTDKEKSWLYTLDPILITIIAMSSLGVLLGATCAGLLLYCTCSYSGLSSRSCTTLENYNFELYDGLKHKVKMNHQKCCSEA
# Legend:
# Experiment in all cases: glycan array binding signal (z-score within array); higher = stronger binding
# Details in all cases: glycan notation: IUPAC condensed, linker removed
# [1] = biological target: Gal(b1-4)GlcNAc(b1-6)Gal(b1-4)GlcNAc
# Procedure, shortened: (§1)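 Glycan array binding is given as a within-array Z-score, which can be read as non-binding when negative. The arrays, 3228 of them, came from the Consortium for Functional Glycomics database and were retained only where the protein sequence was available. Z-scores were averaged across arrays of the same protein sequence at different concentrations or buffers and across linkers.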
# [2] = biological target: Gal(b1-4)GlcNAc(b1-6)Gal(b1-4)GlcNAc(b1-6)GalNAc
# Procedure, shortened: as §1
# [3] = biological target: Gal(b1-4)GlcNAc(b1-6)GalNAc
# Procedure, shortened: as §1
# [4] = biological target: Gal(b1-4)GlcNAc(b1-6)[Gal(b1-3)]GalNAc
# Procedure, shortened: as §1
# [5] = biological target: Gal3S(b1-3)GalNAc
# Procedure, shortened: as §1
# [6] = biological target: Gal3S(b1-3)GlcNAc
# Procedure, shortened: as §1
# [7] = biological target: Gal3S(b1-3)[Fuc(a1-4)]GlcNAc
# Procedure, shortened: as §1
# [8] = biological target: Gal3S(b1-4)Glc
# Procedure, shortened: as §1
# [9] = biological target: Gal3S(b1-4)Glc6S
# Procedure, shortened: as §1
# [10] = biological target: Gal3S(b1-4)GlcNAc
# Procedure, shortened: as §1
# [11] = biological target: Gal3S(b1-4)GlcNAc6S
# Procedure, shortened: as §1
# [12] = biological target: Gal3S(b1-4)[Fuc(a1-3)]Glc
# Procedure, shortened: as §1
# [13] = biological target: Gal3S4S(b1-4)GlcNAc
# Procedure, shortened: as §1
# [14] = biological target: Gal3S6S(b1-4)GlcNAc
# Procedure, shortened: as §1
# [15] = biological target: Gal3S6S(b1-4)GlcNAc6S
# Procedure, shortened: as §1
# [16] = biological target: Gal4S(b1-4)GlcNAc
# Procedure, shortened: as §1
# [17] = biological target: Gal4S6S(b1-4)GlcNAc
# Procedure, shortened: as §1
# [18] = biological target: Gal6S(b1-4)Glc
# Procedure, shortened: as §1
# [19] = biological target: Gal6S(b1-4)Glc6S
# Procedure, shortened: as §1
# [20] = biological target: Gal6S(b1-4)GlcNAc
# Procedure, shortened: as §1
# [21] = biological target: Gal6S(b1-4)GlcNAc6S
# Procedure, shortened: as §1
# [22] = biological target: GalNAc(a1-3)Gal
# Procedure, shortened: as §1
# [23] = biological target: GalNAc(a1-3)GalNAc
# Procedure, shortened: as §1
# [24] = biological target: GalNAc(b1-3)Gal
# Procedure, shortened: as §1
# [25] = biological target: GalNAc(b1-3)Gal(a1-4)Gal(b1-4)GlcNAc
# Procedure, shortened: as §1
# [26] = biological target: GalNAc(b1-3)Gal(a1-4)Gal(b1-4)GlcNAc(b1-3)Gal(b1-4)Glc
# Procedure, shortened: as §1
# [27] = biological target: GalNAc(b1-3)GalNAc
# Procedure, shortened: as §1
# [28] = biological target: GalNAc(b1-4)GlcNAc
# Procedure, shortened: as §1
# [29] = biological target: GalNAc(b1-4)GlcNAc(b1-2)Man(a1-3)[GalNAc(b1-4)GlcNAc(b1-2)Man(a1-6)]Man(b1-4)GlcNAc(b1-4)GlcNAc
# Procedure, shortened: as §1
# [30] = biological target: Glc(a1-4)Glc
# Procedure, shortened: as §1
# [31] = biological target: Glc(a1-6)Glc(a1-6)Glc
# Procedure, shortened: as §1
# [32] = biological target: Glc(b1-4)Glc
# Procedure, shortened: as §1
# [33] = biological target: Glc(b1-6)Glc
# Procedure, shortened: as §1
# [34] = biological target: GlcA(b1-3)Gal
# Procedure, shortened: as §1
# [35] = biological target: GlcA(b1-3)GlcNAc
# Procedure, shortened: as §1
# [36] = biological target: GlcA(b1-6)Gal
# Procedure, shortened: as §1
# [37] = biological target: GlcNAc(a1-3)Gal(b1-4)GlcNAc
# Procedure, shortened: as §1
# [38] = biological target: GlcNAc(a1-4)Gal(b1-3)GlcNAc
# Procedure, shortened: as §1
# [39] = biological target: GlcNAc(a1-4)Gal(b1-4)GalNAc
# Procedure, shortened: as §1
# [40] = biological target: GlcNAc(a1-4)Gal(b1-4)GlcNAc
# Procedure, shortened: as §1
# [41] = biological target: GlcNAc(a1-4)Gal(b1-4)GlcNAc(b1-3)Gal(b1-4)Glc
# Procedure, shortened: as §1
# [42] = biological target: GlcNAc(a1-4)Gal(b1-4)GlcNAc(b1-3)Gal(b1-4)GlcNAc
# Procedure, shortened: as §1
# [43] = biological target: GlcNAc(a1-4)Gal(b1-4)GlcNAc(b1-3)Gal(b1-4)GlcNAc(b1-3)Gal(b1-4)GlcNAc
# Procedure, shortened: as §1
# [44] = biological target: GlcNAc(a1-4)Gal(b1-4)GlcNAc(b1-3)Gal(b1-4)[Fuc(a1-3)]GlcNAc(b1-3)Gal(b1-4)[Fuc(a1-3)]GlcNAc
# Procedure, shortened: as §1
# [45] = biological target: GlcNAc(a1-6)Gal(b1-4)GlcNAc
# Procedure, shortened: as §1
# [46] = biological target: GlcNAc(b1-2)Gal(b1-3)GalNAc
# Procedure, shortened: as §1
# [47] = biological target: GlcNAc(b1-2)Man(a1-3)[GlcNAc(b1-2)Man(a1-6)]Man(b1-4)GlcNAc(b1-4)GlcNAc
# Procedure, shortened: as §1
# [48] = biological target: GlcNAc(b1-2)Man(a1-3)[GlcNAc(b1-2)Man(a1-6)]Man(b1-4)GlcNAc(b1-4)[Fuc(a1-6)]GlcNAc
# Procedure, shortened: as §1
# [49] = biological target: GlcNAc(b1-3)Gal
# Procedure, shortened: as §1
# [50] = biological target: GlcNAc(b1-3)Gal(b1-3)GalNAc
# Procedure, shortened: as §1
# [51] = biological target: GlcNAc(b1-3)Gal(b1-4)Glc
# Procedure, shortened: as §1
# [52] = biological target: GlcNAc(b1-3)Gal(b1-4)GlcNAc
# Procedure, shortened: as §1
# [53] = biological target: GlcNAc(b1-3)Gal(b1-4)GlcNAc(b1-3)Gal(b1-4)GlcNAc
# Procedure, shortened: as §1
# [54] = biological target: GlcNAc(b1-3)GalNAc
# Procedure, shortened: as §1
# [55] = biological target: GlcNAc(b1-3)Man
# Procedure, shortened: as §1
# [56] = biological target: GlcNAc(b1-3)[GlcNAc(b1-4)][GlcNAc(b1-6)]GlcNAc
# Procedure, shortened: as §1
# [57] = biological target: GlcNAc(b1-3)[GlcNAc(b1-6)]Gal(b1-4)GlcNAc
# Procedure, shortened: as §1
# [58] = biological target: GlcNAc(b1-3)[GlcNAc(b1-6)]GalNAc
# Procedure, shortened: as §1
# [59] = biological target: GlcNAc(b1-4)Gal(b1-4)GlcNAc
# Procedure, shortened: as §1
# [60] = biological target: GlcNAc(b1-4)GlcNAc
# Procedure, shortened: as §1
binder,measurement,setting,value
B1,glycan array binding signal (z-score),[1],-0.761
same,glycan array binding signal (z-score),[2],0.154
same,glycan array binding signal (z-score),[3],-0.223
same,glycan array binding signal (z-score),[4],0.109
same,glycan array binding signal (z-score),[5],-0.396
same,glycan array binding signal (z-score),[6],-0.022
same,glycan array binding signal (z-score),[7],-0.633
same,glycan array binding signal (z-score),[8],-0.532
same,glycan array binding signal (z-score),[9],0.419
same,glycan array binding signal (z-score),[10],0.165
same,glycan array binding signal (z-score),[11],0.03
same,glycan array binding signal (z-score),[12],0.996
same,glycan array binding signal (z-score),[13],-0.032
same,glycan array binding signal (z-score),[14],0.401
same,glycan array binding signal (z-score),[15],0.497
same,glycan array binding signal (z-score),[16],-0.216
same,glycan array binding signal (z-score),[17],1.92
same,glycan array binding signal (z-score),[18],-0.043
same,glycan array binding signal (z-score),[19],0.689
same,glycan array binding signal (z-score),[20],0.357
same,glycan array binding signal (z-score),[21],1.67
same,glycan array binding signal (z-score),[22],0.45
same,glycan array binding signal (z-score),[23],-0.367
same,glycan array binding signal (z-score),[24],-0.285
same,glycan array binding signal (z-score),[25],-0.499
same,glycan array binding signal (z-score),[26],-0.06
same,glycan array binding signal (z-score),[27],-0.901
same,glycan array binding signal (z-score),[28],-0.284
same,glycan array binding signal (z-score),[29],-0.277
same,glycan array binding signal (z-score),[30],-0.194
same,glycan array binding signal (z-score),[31],-0.466
same,glycan array binding signal (z-score),[32],0.381
same,glycan array binding signal (z-score),[33],-0.687
same,glycan array binding signal (z-score),[34],-0.364
same,glycan array binding signal (z-score),[35],-0.632
same,glycan array binding signal (z-score),[36],-0.217
same,glycan array binding signal (z-score),[37],-0.437
same,glycan array binding signal (z-score),[38],1.66
same,glycan array binding signal (z-score),[39],6.59
same,glycan array binding signal (z-score),[40],0.239
same,glycan array binding signal (z-score),[41],1.04
same,glycan array binding signal (z-score),[42],0.627
same,glycan array binding signal (z-score),[43],-0.398
same,glycan array binding signal (z-score),[44],10.4
same,glycan array binding signal (z-score),[45],-0.283
same,glycan array binding signal (z-score),[46],-0.287
same,glycan array binding signal (z-score),[47],-0.218
same,glycan array binding signal (z-score),[48],0.982
same,glycan array binding signal (z-score),[49],-0.382
same,glycan array binding signal (z-score),[50],1.07
same,glycan array binding signal (z-score),[51],-0.317
same,glycan array binding signal (z-score),[52],-0.483
same,glycan array binding signal (z-score),[53],-0.254
same,glycan array binding signal (z-score),[54],-0.205
same,glycan array binding signal (z-score),[55],-0.027
same,glycan array binding signal (z-score),[56],0.25
same,glycan array binding signal (z-score),[57],-0.172
same,glycan array binding signal (z-score),[58],0.104
same,glycan array binding signal (z-score),[59],-0.924
same,glycan array binding signal (z-score),[60],-0.129
